In PubChem BioAssay (NCATS):
Where “and” joins values, the source holds several entries; their conditions need not be identical. Equal values may be shown once. This list was built around the results that the source calls inconclusive (neither active nor inactive); the mix of calls is not that of the screen. Potencies of inconclusive entries are doubtful fits and often do not repeat. For part of these data: “Side channel” marks fits to a control or component signal instead of the main read-out. Calls of active or inactive are those of the source. Unless noted, calls follow the shape of the dose curve; as a rule, active = well fitted curve in the direction sought with a large enough effect; inconclusive = small, poorly fitted or top-dose-only effect, or another doubt; inactive = no such curve, though single readings can be large; an effect the other way counts as inactive or inconclusive.

Key:
[1] = qHTS Assay for Identification of Small Molecule Agonists for Hypoxia Response Element Signaling Pathway (AID 914; active = well fitted activation curve with a large enough effect in the signal ratio, with a control signal flat, not every such curve was filed as active; inconclusive = small, poorly fitted or top-dose-only effect, or effect the other way, or a change in a side signal; the % refers to the signal ratio); settings: ME-180 (cervical carcinoma) HRE-bla reporter, beta-lactamase ratio, CoCl2, 17 h; activation: hits give high values
Method in brief: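 qHTS titration; ME-180 HRE-bla cells; EC50 CoCl2 co-treatment, 17 h at 37 degrees Celsius; CCF4 dye, ex 405nm, em 460nm and 530nm; %Activity from ratio; AC50.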

[2] = test system: Zika virus NS2B-NS3 protease; assay: Primary screen GU AMC qHTS for Zika virus inhibitors (AID 1347154); also: nearly all actives have a fitted effect of over 70% in size;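 as to activity change, negative = inhibition: 0% = no-inhibitor control and -100% = no-enzyme control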
Method in brief: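 Unlinked Zika NS2B hydrophilic domain–NS3 protease complex at 25 nM in 10 mM Tris-HCl pH 8.0, 0.01% Tween 20, with an AMC peptide substrate. Fluorescence change (340/450 nm) over 15 min at room temperature, normalized to controls, fitted to 4-parameter Hill.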

C2A = assay: qHTS profiling for inhibitors of Plasmodium falciparum proliferation (AID 504749); also: nearly all actives have a fitted effect of over 60% in size;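 as to activity, negative = inhibition: 0% = DMSO vehicle and full inhibition = artemisinin control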; settings: P. falciparum in erythrocytes, SYBR Green DNA, 72 h; series mostly up to 28.7 µM
Method in brief: (§1)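 Readout was DNA-dye fluorescence from lysed cultures, ex 485/em 535 nm. Parasitized red cells had grown 72 h with compound; data scaled between 0.29 uM artemisinin and DMSO wells and corrected using vehicle-only plates.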

[3] = qHTS for differential inhibitors of proliferation of Plasmodium falciparum line GB4 (AID 1816); settings: Potency: Plasmodium falciparum GB4 proliferation inhibition;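 also: parasite growth measured after 72 h incubation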;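 as to activity change, negative = inhibition: 0% = vehicle DMSO and -100% = reference inhibitor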
[4] = qHTS of pediatric cancer cell lines to identify multiple opportunities for drug repurposing: Primary screen for RD cells (AID 1347104); settings: RD rhabdomyosarcoma viability, CellTiter-Glo luminescence, 48 h; activity change, negative = cytotoxic: at 46 µM (top of the series); also: nearly all actives have a fitted effect of over 55% in size;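 as to activity change, negative = cytotoxic: plate controls were DMSO for no effect and bortezomib for full effect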
Method in brief: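 Primary screen of approved and investigational compounds on cells in growth media at 37 degrees C, 5% CO2. MIPE set at 11-point and NPC set at 8-point dilutions; viability scored by ATP-based luminescence at 48 hours.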

[5] = qHTS to identify inhibitors of the type 1 interferon - major histocompatibility complex class I in skeletal muscle: primary screen against the NCATS Mechanism Interrogation Plate v5.0 (MIPE) Libary (AID 1347411); settings: iHSKM cells + IFN-b, HiBiT-tagged MHC-I luminescence, 24 h; activity change, negative = inhibition: at 45.8 µM (top of the series); also: nearly all actives have a fitted effect of over 65% in size;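 as to activity change, negative = inhibition: plate controls were vehicle for no effect and reference inhibitor for full effect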
Method in brief: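 Immortalized human C25cl48 myoblasts with HiBit knocked into endogenous HLA-B*08:01 were stimulated with 4.0 ng/ml IFN-beta and exposed to compounds (11-point 1:3 titration, top 46 uM final) for 24 hrs at 37 C; HiBiT lytic luminescence measured.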

[6] = Quantitative High-Throughput drug screen in 47 multiple myeloma cell lines against the NCATS MIPE library collection: Delta47_JCRB cell viability assay (AID 1918925; also: nearly all actives have a fitted effect of over 45% in size); settings: Delta47 myeloma viability, CellTiter-Glo ATP, 48 h; viability (% of DMSO): at 45.8 µM (top of the series)
Method in brief: (§2)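 Approved and investigational drugs from MIPE 4.0 were added by pin tool to 500 cells per well. After 48 hours at 37C, ATP-based CellTiter-Glo luminescence indicated remaining viability.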

[7] = Quantitative High-Throughput drug screen in 47 multiple myeloma cell lines against the NCATS MIPE library collection: Karpas417_ECACC cell viability assay (AID 1918961); settings: Karpas417 myeloma viability, CellTiter-Glo ATP luminescence, 48 h; viability (% of DMSO): at 45.8 µM (top of the series)
Method in brief: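 qHTS of the MIPE 4.0 collection: 500 myeloma cells/well, 48 h drug exposure at 37C in 5% CO2, then CellTiter-Glo for 5 min at room temperature before luminescence reading.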

[8] = Quantitative High-Throughput drug screen in 47 multiple myeloma cell lines against the NCATS MIPE library collection: KHM11_PLB cell viability assay (AID 1918962); settings: KHM11 myeloma cell viability, CellTiter-Glo ATP luminescence, 48 h; viability, % of DMSO control: at 45.8 µM (top of the series); also: nearly all actives have a fitted effect of over 35% in size
Method in brief: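 Inhibition of cell viability is measured here. Each line was plated at 500 cells per well, treated with MIPE 4.0 drugs, kept 48 hours at 37C, then assayed for ATP content by CellTiter-Glo luminescence.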

[9] = Quantitative High-Throughput drug screen in 47 multiple myeloma cell lines against the NCATS MIPE library collection: KMS20_JCRB cell viability assay (AID 1918973); settings: CellTiter-Glo ATP, 48 h; viability (% of DMSO): at 45.8 µM (top of the series); also: nearly all actives have a fitted effect of over 45% in size
Method in brief: as §2

[10] = Quantitative High-Throughput drug screen in 47 multiple myeloma cell lines against the NCATS MIPE library collection: KMS21BM_JCRB cell viability assay (AID 1918974); settings: ATP luminescence, 48 h; viability: at 45.8 µM (top of the series)
Method in brief: as §2

[11] = Quantitative High-Throughput drug screen in 47 multiple myeloma cell lines against the NCATS MIPE library collection: OCIMY5_PLB cell viability assay (AID 1918988); also: nearly all actives have a fitted effect of over 65% in size
Method in brief: (§3)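 Viability after 48 h drug exposure was measured as ATP-dependent luminescence. Cells, 500 per well, sat at 37 °C under 5% CO2; DMSO wells set 100%, media-only wells 0%.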

[12] = Quantitative High-Throughput drug screen in 47 multiple myeloma cell lines against the NCATS MIPE library collection: UTMC2_PLB cell viability assay (AID 1919868); settings: CellTiter-Glo ATP luminescence, 48 h; viability (% of DMSO control): at 45.8 µM (top of the series); also: nearly all actives have a fitted effect of over 55% in size
Method in brief: as §3

[13] = Quantitative High-Throughput drug screen in 47 multiple myeloma cell lines against the NCATS MIPE library collection: PE2_PLB cell viability assay (AID 1919869); also: nearly all actives have a fitted effect of over 35% in size
Method in brief: as §3

CP185 = assay: qHTS profiling for inhibitors of Plasmodium falciparum proliferation (AID 504749); also: nearly all actives have a fitted effect of over 60% in size;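 as to activity, negative = inhibition: 0% = DMSO vehicle and full inhibition = artemisinin control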; settings: P. falciparum in erythrocytes, SYBR Green DNA, 72 h; series mostly up to 28.7 µM
Method in brief: as §1

CP266 = assay: as above; settings: P. falciparum in erythrocytes, SYBR Green DNA, 72 h; series mostly up to 28.7 µM
Method in brief: as §1

7G8 = assay: as above; settings: P. falciparum in erythrocytes, SYBR Green DNA, 72 h; series mostly up to 28.7 µM
Method in brief: as §1

ATS95 = assay: as above; settings: P. falciparum in erythrocytes, SYBR Green DNA, 72 h; series mostly up to 28.7 µM
Method in brief: as §1

CP297 = assay: as above; settings: P. falciparum in erythrocytes, SYBR Green DNA, 72 h; activity, negative = inhibition: at 28.7 µM (top of the series) unless noted
Method in brief: as §1

[14] = qHTS of pediatric cancer cell lines to identify multiple opportunities for drug repurposing: Primary screen for OHS-50 cells (AID 1347103); also: nearly all actives have a fitted effect of over 40% in size;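 as to activity change, negative = cytotoxic: plate controls were DMSO neutral control for no effect and bortezomib positive control for full effect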
Method in brief: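 Cells (500-1,000/well) rested 5 h, then received compounds for 48 h; metabolically active cells were measured by CellTiter-Glo luminescence. Final concentrations spanned up to 46 µM (MIPE, 11-point) or 0.59 nM-46 µM (NPC, 8-point) in primary screens, 11-point in follow-ups.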
Potency is read from the fitted curve at half-maximal effect; tags tell the direction and shape of the fitted curve or compound fluorescence and quenching.

CCN(CC)CCc1nc(-c2ccccc2)no1
Potency [1]: inconclusive: 12.6 µM [inhibitor, single point]
Potency [2]: inactive
Potency (C2A): inactive

O=C1CCc2cc(OCCCCc3nnnn3C3CCCCC3)ccc2N1
Potency [3]: inconclusive: 4.47 µM [inhibitor, partial curve]
Potency [4]: inactive
Potency [5]: inactive
Potency [6]: inconclusive: 33.2 µM [cytotoxic, single point]
viability (% of DMSO) [7]: active: 113%
Potency [8]: inconclusive: 5.26 µM [rising, partial curve, poor fit]
Potency [9]: inconclusive: 37.2 µM [cytotoxic, single point]
Potency [10]: inconclusive: 0.418 µM [rising, full curve, poor fit]
Potency [11]: inconclusive: 0.0148 µM [rising, full curve, poor fit]
Potency [12]: inconclusive: 37.2 µM [cytotoxic, partial curve, poor fit]
Potency [13]: inconclusive: 11.8 µM [cytotoxic, partial curve, poor fit]
Potency (C2A): inconclusive: 3.98 µM [inhibitor, single point]
Potency (CP185): inconclusive: 3.55 µM [inhibitor, single point]
Potency (CP266): inactive

CC(N)C12CC3CC(CC(C3)C1)C2 (centres undefined)
Potency [4]: inactive
Potency [5]: inactive
Potency [6]: inactive
Potency [7]: inconclusive: 4.69 µM [rising, partial curve, poor fit]
Potency [8]: inconclusive: 0.0074 µM [rising, full curve, poor fit]
Potency [9]: inactive
Potency [10]: inconclusive: 4.69 µM [rising, partial curve, poor fit]
Potency [11]: inconclusive: 0.0118 µM [cytotoxic, full curve, poor fit]
Potency [12]: inconclusive: 37.2 µM [rising, partial curve, poor fit]
Potency [13]: inactive
Potency (7G8): inconclusive: 11.2 µM [inhibitor, partial curve, poor fit]
Potency (ATS95): inconclusive: 10 µM [inhibitor, single point]
Potency (CP185): inconclusive: 10 µM [inhibitor, single point]
Potency (CP297): active: 7.57 µM

COc1cc([C@H]2Oc3cc([C@H]4Oc5cc(O)cc(O)c5C(=O)[C@@H]4O)ccc3O[C@@H]2CO)ccc1O
Potency [2]: inconclusive: 36.1 µM [inhibitor, partial curve, poor fit]
Potency (7G8): active: 11.2 µM

CCNC(=O)/C=C/c1cccc(Br)c1
Potency [14]: inconclusive: 17.4 µM [cytotoxic, partial curve, poor fit]
Potency (ATS95): inactive

CCCCCCCCCCCCCCCCC(C(=O)O)C(O)(CC(=O)O)C(=O)O (centres undefined)
Potency [2]: active: 4.05 µM

NC(=O)CC[C@@H](N)C(=O)O
Potency [1]: inconclusive: 10 µM [inhibitor, full curve]
Potency (C2A): inactive
Potency (CP185): inactive

CC1(C)[C@@H](O)CC[C@]2(C)[C@H]3C(=O)C=C4[C@@H]5C[C@@](C)(C(=O)O)CC[C@]5(C)CC[C@@]4(C)[C@]3(C)CC[C@@H]12
Potency (CP266): inconclusive: 21.3 µM [inhibitor, single point]

c1ccc2[nH]ccc2c1
Potency [14]: inactive
Potency (7G8): inactive

CC(C)(C)NCC(O)COc1ccc(NC(=O)NC2CCCCC2)cc1 (centres undefined)
Potency (7G8): inconclusive: 11.2 µM [inhibitor, partial curve, poor fit]

O=C(O)CN(CCN(CC(=O)O)CC(=O)O)CCN(CC(=O)O)CC(=O)O
Potency [3]: inconclusive: 3.16 µM [inhibitor, partial curve]
Potency [14]: inactive
Potency [2]: inactive

CN1C(C)(C)CCCC1(C)C
Potency [3]: inactive
Potency [14]: inactive

Cn1c(=O)c2c(ncn2CCO)n(C)c1=O
Potency (CP297): inactive

Clc1cccc(C(c2ccc3nc[nH]c3c2)n2ccnc2)c1 (centres undefined)
Potency (ATS95): inconclusive: 17.8 µM [inhibitor, single point]
Potency (CP266): inconclusive: 16.9 µM [inhibitor, partial curve, poor fit]
Potency (CP297): inconclusive: 19 µM [inhibitor, single point]

CC(=O)c1ccc(S(=O)(=O)NC(=O)NC2CCCCC2)cc1
Potency (C2A): inactive
Potency (CP297): inactive

CC(C)N(CCC(=O)c1ccc2ccccc2c1)Cc1ccccc1
Potency [1]: inconclusive: 31.6 µM [cytotoxic, side channel, single point]
Potency [3]: inconclusive: 12.6 µM [inhibitor, partial curve]

CCc1cccc2c3c([nH]c12)[C@@](CC)(CC(=O)O)OCC3
Potency (ATS95): inactive

CNC(=O)c1ccccc1Nc1nc(Nc2ccc3c(c2OC)CCC[C@@H](N2CCN(CCO)CC2)C3)ncc1Cl
Potency [5]: inconclusive: 16.5 µM [inhibitor, partial curve]

O=C(O)C[C@H](O)C[C@H](O)C=Cc1c(C2CC2)nc2ccccc2c1-c1ccc(F)cc1
Potency [4]: active: 18.7 µM
Potency [6]: active: 8.33 µM
Potency [7]: inconclusive: 4.18 µM [cytotoxic, full curve, poor fit]
Potency [8]: active: 7.43 µM
Potency [9]: inconclusive: 14.8 µM [cytotoxic, partial curve, poor fit]
Potency [10]: inconclusive: 0.0118 µM [cytotoxic, full curve, poor fit]
Potency [11]: active: 20.9 µM
Potency [12]: active: 9.35 µM
Potency [13]: active: 4.69 µM

CN1C(=O)c2sccc2N(C)c2nc(Nc3ccc(S(N)(=O)=O)cc3)ncc21
Potency [5]: active: 26.2 µM

NC(=O)C1(N2CCCCC2)CCN(CCCC(=O)c2ccc(F)cc2)CC1
Potency (7G8): inconclusive: 7.94 µM [inhibitor, partial curve]
Potency (CP297): inconclusive: 21.3 µM [inhibitor, partial curve, poor fit]

CCOC(=O)N1CCC(=C2c3ccc(Cl)cc3CCc3cccnc32)CC1
Potency [1]: active: 15.8 µM
Potency [14]: active: 24.3 µM and active: 21.9 µM
Potency [4]: inconclusive: 33.2 µM [cytotoxic, single point]
Potency [6]: inconclusive: 16.6 µM [cytotoxic, partial curve, poor fit]
Potency [7]: inconclusive: 0.059 µM [cytotoxic, full curve, poor fit]
Potency [8]: inconclusive: 9.35 µM [cytotoxic, partial curve, poor fit]
Potency [9]: inconclusive: 18.7 µM [cytotoxic, partial curve, poor fit]
Potency [10]: inconclusive: 37.2 µM [cytotoxic, partial curve, poor fit]
Potency [11]: active: 20.9 µM
Potency [12]: inactive
Potency [13]: inconclusive: 18.7 µM [cytotoxic, partial curve, poor fit]
Potency (ATS95): inconclusive: 5.01 µM [inhibitor, partial curve]
Potency (CP185): inconclusive: 3.16 µM [inhibitor, full curve]
Potency (CP266): inconclusive: 1.69 µM [inhibitor, full curve, poor fit]
